Experimental data: publication PMC4336329 (PLoS ONE, 2015)
The campaign covered roughly 310,000 compounds. About 14,000 (4.5%) showed an effect of 50% or more. The effect is printed as a negative number. The list shows a part of the results.

Each compound was assayed against human ether-à-go-go-related gene (hERG) potassium channel (human, UniProt Q12809) (assay: primary screen, population patch clamp on CHO cells stably expressing hERG).
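Note: peak tail current of the secondary pulse compared with the same well before compound.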

Sequence of human ether-à-go-go-related gene (hERG) potassium channel (Q12809 whole entry, looked up): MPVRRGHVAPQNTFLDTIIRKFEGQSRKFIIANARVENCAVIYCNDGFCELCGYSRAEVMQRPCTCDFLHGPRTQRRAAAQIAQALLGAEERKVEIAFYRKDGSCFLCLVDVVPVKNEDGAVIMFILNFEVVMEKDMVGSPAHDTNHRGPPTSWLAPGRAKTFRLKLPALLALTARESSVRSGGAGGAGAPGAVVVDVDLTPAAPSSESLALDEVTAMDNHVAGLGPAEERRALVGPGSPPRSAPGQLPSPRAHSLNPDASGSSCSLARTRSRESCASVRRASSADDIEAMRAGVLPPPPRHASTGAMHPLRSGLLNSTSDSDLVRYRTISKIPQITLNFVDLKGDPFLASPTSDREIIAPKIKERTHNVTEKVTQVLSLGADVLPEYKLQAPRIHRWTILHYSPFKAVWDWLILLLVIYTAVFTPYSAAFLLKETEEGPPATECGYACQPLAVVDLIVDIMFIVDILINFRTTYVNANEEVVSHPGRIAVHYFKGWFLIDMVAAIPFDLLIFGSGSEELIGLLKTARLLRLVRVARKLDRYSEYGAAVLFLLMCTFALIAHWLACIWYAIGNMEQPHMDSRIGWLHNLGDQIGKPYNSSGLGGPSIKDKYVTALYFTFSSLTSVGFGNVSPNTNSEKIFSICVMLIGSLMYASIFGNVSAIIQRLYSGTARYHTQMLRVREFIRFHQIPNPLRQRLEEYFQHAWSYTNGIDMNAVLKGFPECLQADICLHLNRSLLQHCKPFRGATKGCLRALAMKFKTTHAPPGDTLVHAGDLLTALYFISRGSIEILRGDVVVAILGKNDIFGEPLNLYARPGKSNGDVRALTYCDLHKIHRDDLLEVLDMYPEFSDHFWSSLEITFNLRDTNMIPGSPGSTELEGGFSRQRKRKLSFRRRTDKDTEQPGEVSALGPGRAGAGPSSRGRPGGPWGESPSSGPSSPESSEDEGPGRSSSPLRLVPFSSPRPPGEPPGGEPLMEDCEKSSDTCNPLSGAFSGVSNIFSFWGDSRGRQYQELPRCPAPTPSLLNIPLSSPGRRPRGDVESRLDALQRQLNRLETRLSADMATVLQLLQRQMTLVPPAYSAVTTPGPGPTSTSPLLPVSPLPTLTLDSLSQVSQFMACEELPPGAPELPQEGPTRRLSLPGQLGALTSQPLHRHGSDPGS

SMILES | hERG current change (%, negative = inhibition) at 10uM
CCOc1ccc(-n2c(-c3ccccc3)c[n+]3c2CCC3)cc1.[Br-] | -54%
O=C(Nc1cccc(NC(=O)c2ccc(Cl)cc2Cl)c1)c1cccnc1 | 5.77%
CC(C)OCCCNC(=S)Nc1ccc2nc3n(c(=O)c2c1)CCCCC3 | -13.9%
CSc1ncc(-c2ccccc2)cn1 | -11.2%
COc1cc(-c2nnc(SCC#CCO)o2)cc(OC)c1OC | -11.8%
COc1cccc2cc(C(=O)N3CCCCCCC3)c(=O)oc12 | 9.34%
COc1ccccc1N(C)S(=O)(=O)c1ccc(C(=O)NC2=NCCS2)cc1 | -11.4%
O=C(O)CC1S/C(=N\N=C/c2ccccc2)N(c2ccc(O)cc2)C1=O (stereo not shown) | 13.4%
O=C(CCC(=O)NNC(=O)Nc1ccc(Cl)cc1)NCc1ccccc1 | 21.6%
Cc1ccc(N(Cc2ccc(C(=O)NCC3CCCO3)cc2)S(C)(=O)=O)cc1C (stereo not shown) | -1.05%
O=C(CC1C(=O)NCCN1C(=O)Nc1ccccc1)Nc1ccc2c(c1)OCO2 (stereo not shown) | 6.09%
CN(C1CCCCC1)S(=O)(=O)c1ccc(-c2ccccn2)s1 | -15.6%
Cc1nn(S(=O)(=O)c2ccc([N+](=O)[O-])cc2)c(C)c1Sc1ccccc1 | -2.78%
OC(CN1CCNCC1)Cn1ccc2ccccc21 (stereo not shown) | -16.2%
CCOC(=O)N1CCN(C(=O)c2ccccc2NC(=O)c2ccc(F)cc2)CC1 | 15.4%
CN(CC(=O)N1CCCC1)S(=O)(=O)c1cc(Cl)ccc1Cl | -16%
CCn1c(-c2ccccc2Cl)nn(CC(=O)Nc2cc(Cl)ccc2Cl)c1=S | -23.3%
Cc1c(NS(=O)(=O)c2cccc([N+](=O)[O-])c2)c(=O)n(-c2ccccc2)n1C | 17.1%
COc1ccccc1C(=O)C1CCCN(C(=O)c2cc(CC(C)C)nc(C)n2)C1 (stereo not shown) | -60.5%
COc1ccc([N+](=O)[O-])cc1NC(=O)COC(=O)c1ccccc1O | 38.8%
O=C(NC1CCCCC1)c1ccccc1NC(=O)C1CC(=O)N(c2ccc(Cl)cc2)C1 (stereo not shown) | 2.36%
O=C(NCc1ccco1)c1ccc(CN2CCOCC2)cc1 | 9.35%

SMILES | hERG current change (%, negative = inhibition) at 10uM
O=C(Cn1ccc2ccccc2c1=O)N1CCN(c2cccc(Cl)c2)CC1 | 5.24%
O=S1(=O)CCOCCCN1Cc1ccc(Cl)cc1 | 2.2%
CCN(CC(=O)Nc1c(F)cccc1F)C(=O)CSc1nnc(-c2ccco2)n1CC | 18.3%
COc1ccc(C2C(C#N)=C(N)Oc3n[nH]c(C)c32)cc1Cn1nc(C)c([N+](=O)[O-])c1C (stereo not shown) | -36.1%
COc1ccc(-c2nc(-c3ccccc3)nc(N3CCN(C)CC3)c2C#N)cc1 | -1.17%
COCCCNC(=O)c1ccc(CN2CCc3ccccc3C2)cc1 | 12.5%
Cc1cccc(NC(=O)CCc2nc3sc4c(c3c(=O)[nH]2)CCCC4)c1 | 10.8%
O=C(Nc1cccc(Br)c1)c1ccc(Cl)c(S(=O)(=O)N2CCOCC2)c1 | -0.264%
COc1ccc(Sc2nc(-c3ccccn3)ncc2OC)cc1 | -18.7%
Cc1cc(C)c(NC(=O)NC(=O)c2cccc(F)c2)c(C)n1 | 2.64%
Cc1ccc(N)c(C(O)(C(F)(F)F)C(F)(F)F)c1 | -4.88%
COc1cc(/C=C/C(=O)N2CCN(c3n[nH]c(=O)[nH]c3=O)CC2)cc(OC)c1OC | 3.54%
CCOC(=O)CN(C(=O)COc1nc(C)cc(C)c1C#N)c1cccc(Cl)c1 | 4.06%
CCOC(=O)N1CCN(S(=O)(=O)c2ccc3[nH]c(=O)oc3c2)CC1 | -1.83%
O=C(C(Cc1ccccc1)NS(=O)(=O)c1cccc2cccnc12)N1CCc2ccccc21 (stereo not shown) | -13.4%
CCC(C)c1ccc(OCCn2cc(/C=N/NC(=O)CSc3nnc(C)s3)c3ccccc32)cc1 (stereo not shown) | 18.3%
Cc1cccc(-n2c(C)cc(C=C(C#N)C#N)c2C)c1 | 3.91%
Cc1cc2nccc(-c3ccc(Cl)c([N+](=O)[O-])c3)n2n1 | 16.5%
CC(C)c1ccc(COc2ccc(C(=O)N3CCOCC3)cc2)cc1 | -9.13%
COC(C[C@@H]1O[C@@H]1[C@H](O)COCc1ccccc1)OC | -1.9%
COC(=O)C1=C(c2ccc(OC)c(OC)c2)C[C@@H]2CC[C@H]1N2C(=O)N1CCC(C)CC1 | 5.39%
COc1ccc(-c2cc(C(F)(F)F)n3nc(C(=O)NCCN4CCOCC4)cc3n2)cc1 | 8.84%

SMILES | hERG current change (%, negative = inhibition) at 10uM
Cc1cc(C)nc(/N=C(\N)Nc2ccc(C(C)C)cc2)n1 | -67.5%
O=C(NCC(=O)N(c1cccnc1)C(C(=O)NC1CCCCC1)c1ccccc1F)c1ccco1 (stereo not shown) | 16%
Cc1cc(C)c(C)c(S(=O)(=O)Nc2ccc(C(=O)N3CCCC3)cc2)c1C | 2.91%
N=C1/C(=C\c2ccc(SCc3ccccc3)o2)C(=O)N=C2SC(CC(=O)N3CCOCC3)=NN12 | 3%
CCOC(=O)N1CCN(Cc2nc3cc([N+](=O)[O-])ccc3n2C)CC1 | -24.5%
C/C(=N\NC(=O)c1ccccc1NC(=O)c1ccc(Cl)cc1)c1ccncc1 | 4.55%
C=CCNC(=O)C1=NOC(CNC(=O)c2c(-c3ccccc3Cl)noc2C)C1 (stereo not shown) | 14.8%
CC(C)C[NH+]=c1cc(-c2ccccc2)oc2ccc(Cl)cc12.F[B-](F)(F)F | -87.4%
CCOc1ccc(N2CC(C(=O)NCc3nnnn3-c3ccc(C)c(C)c3)CC2=O)cc1 (stereo not shown) | -18.8%
O=C(Nc1ccc(-c2nc3ccccc3[nH]2)cc1)c1ccc2c(c1)OCO2 | 6.85%
O=C(COC(=O)c1cnc(Cl)c(Cl)c1)NCc1cccs1 | 0.95%
COc1ccc(NC(=O)CSc2nc(N)c(NC(=O)c3ccccc3F)c(=O)[nH]2)cc1 | -10.6%
COc1cc(C(=O)N2C[C@H]3CC[C@H]2C3)ccc1OC1CCN(C(C)=O)CC1 | 11.5%
CCOc1ccc(NC(=O)CNS(=O)(=O)c2c(C)cc(C)cc2C)cc1 | 11.5%
NS(=O)(=O)c1ccc(NC(=S)Nc2ccc(S(=O)(=O)N3CCCC3)cc2)cc1 | 15.8%
CNc1cccc2c1C(=O)c1ccccc1C2=O | -0.298%
CCOC(=O)c1ccc(S(=O)(=O)NCC[NH+]2CCOCC2)cc1.[Cl-] | 39.5%
Cc1cc(Cl)ccc1OCC(=O)Nc1ccccc1N1CCOCC1 | -23.2%
O=C(COC(=O)C1=COCCO1)Nc1ccc2c(c1)OCO2 | 13.2%
Cc1cccc(NC(=S)N/N=C/c2ccc(Cl)c([N+](=O)[O-])c2)c1 | 3.28%
CN1CCN(c2ccc(S(=O)(=O)N3CCCCC3)cc2NC(=O)Cc2ccccc2F)CC1 | -31%
COC(=O)c1sc(NC(=O)c2ccc(OC)cc2OC)nc1C | 10.7%

SMILES | hERG current change (%, negative = inhibition) at 10uM
O=C(CSc1nnc(-c2ccncc2)o1)Nc1ccccc1Cl | 12.3%
O=C(CSc1nncs1)Nc1ccc2[nH]c(=O)[nH]c2c1 | 3.88%
CCC1(C)SC(N)=NN1C(C)=O (stereo not shown) | 13.1%
COc1ccc(Cc2nnc(SCC(=O)N(C)CC(=O)Nc3ccc(C)cc3)o2)cc1 | -22.2%
COc1ccc(S(=O)(=O)NNC(=O)C2COc3ccccc3O2)cc1[N+](=O)[O-] (stereo not shown) | 12.6%
CCOC(=O)c1sc(NC(NC(=O)c2ccco2)(C(=O)OC)C(F)(F)F)nc1C (stereo not shown) | 3.54%
CC(OC(=O)c1n[nH]c2ccccc12)C(=O)NC1CCCCC1C (stereo not shown) | -0.049%
C=CCN(CC=C)CCOc1ccc(C)cc1[N+](=O)[O-].O=C(O)C(=O)O | -47.3%
S=c1sc2c(N3CCN(Cc4ccccc4)CC3)ncnc2n1-c1ccccc1 | -8.67%
CCOc1ccc(C/C(N)=N/n2cnnc2)cc1 | -0.498%
O=C(c1cc(-c2ccc(Cl)cc2)n(-c2cc(Cl)ccc2Cl)n1)N1CCOCC1 | -68.9%
Cc1cccc(N(C(=O)c2csnn2)C(C(=O)NCc2ccccc2)c2ccc(C)o2)c1 (stereo not shown) | -54.6%
Cc1ccc2nc(NC(=O)COC(=O)c3ccccn3)sc2c1 | -42.5%
Cc1ccc(CSCC(=O)NCc2ccc3c(c2)OCO3)cc1 | -16.4%
Cc1ccc(Cl)c(OCC(=O)NCc2ccco2)c1 | 1.03%
CC(=O)c1cccc(NC(=O)c2oc(C)nc2C)c1 | -3.93%
Cc1csc2nc(CSc3nncn3-c3ccccc3)c(Br)n12 | -9.86%
COc1cccc(NC(=O)CCC2CCN(C(=O)c3ccc(C(C)=O)s3)CC2)c1 | -36.9%
COc1ccc(/C=C/C(=O)Nc2cc(S(=O)(=O)N3CCOCC3)ccc2N2CCCC2)cc1OC | -40.3%
